Consider 31 molecules from article PMC9911399, “Two distinct binding modes provide the RNA-binding protein RbFox with extraordinary sequence specificity”.

The chains are these.
T1: RBFOX1 RRM RbFoxmut (Fox-RRM*) (Homo sapiens, UniProt Q9NWB1 109-208, R118D;E147R;N151S;E152T)
T1 sequence: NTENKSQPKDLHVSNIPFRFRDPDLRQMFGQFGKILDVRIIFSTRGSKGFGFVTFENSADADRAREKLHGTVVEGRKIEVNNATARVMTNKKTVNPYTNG

B1: CAUUUGU (DNA:RNA)
RNA: GGGAGACCGGAAUUCAGAUUGUCCCAUUUGUUUAAAUCCCGUCGUAGCCACCA
DNA 1: CAATCTGAATTCCGGTCTCCC
DNA 2: TGGTGGCTACGACGGGATT
B2: AUUCGCG (DNA:RNA)
RNA: B1 RNA with C25A, A26U, U28C, U29G, G30C, U31G
DNA 1: CAATCTGAATTCCGGTCTCCC
DNA 2: TGGTGGCTACGACGGGATT
B3: GCCUGCA (DNA:RNA)
RNA: B1 RNA with C25G, A26C, U27C, U29G, G30C, U31A
DNA 1: CAATCTGAATTCCGGTCTCCC
DNA 2: TGGTGGCTACGACGGGATT
B4: UUGCGUG (DNA:RNA)
RNA: GGGAGACCGGAAUUCAGAUUGUCCUUGCGUGUUAAAUCCCGUCGUAGCCACCA
DNA 1: CAATCTGAATTCCGGTCTCCC
DNA 2: TGGTGGCTACGACGGGATT
B5: UUACACG (DNA:RNA)
RNA: B4 RNA with G27A, G29A, U30C
DNA 1: CAATCTGAATTCCGGTCTCCC
DNA 2: TGGTGGCTACGACGGGATT
B6: UAUACCG (DNA:RNA)
RNA: B1 RNA with C25U, U28A, U29C, G30C, U31G
DNA 1: CAATCTGAATTCCGGTCTCCC
DNA 2: TGGTGGCTACGACGGGATT
B7: GGGGAGG (DNA:RNA)
RNA: B4 RNA with U25G, U26G, C28G, G29A, U30G
DNA 1: CAATCTGAATTCCGGTCTCCC
DNA 2: TGGTGGCTACGACGGGATT
B8: UCCGGGU (DNA:RNA)
RNA: B1 RNA with C25U, A26C, U27C, U28G, U29G
DNA 1: CAATCTGAATTCCGGTCTCCC
DNA 2: TGGTGGCTACGACGGGATT
B9: UCUAGUG (DNA:RNA)
RNA: B4 RNA with U26C, G27U, C28A
DNA 1: CAATCTGAATTCCGGTCTCCC
DNA 2: TGGTGGCTACGACGGGATT
B10: GAUAUGC (DNA:RNA)
RNA: B1 RNA with C25G, U28A, U31C
DNA 1: CAATCTGAATTCCGGTCTCCC
DNA 2: TGGTGGCTACGACGGGATT
B11: UUCUAUG (DNA:RNA)
RNA: B4 RNA with G27C, C28U, G29A
DNA 1: CAATCTGAATTCCGGTCTCCC
DNA 2: TGGTGGCTACGACGGGATT
B12: UCCAAUU (DNA:RNA)
RNA: B4 RNA with U26C, G27C, C28A, G29A, G31U
DNA 1: CAATCTGAATTCCGGTCTCCC
DNA 2: TGGTGGCTACGACGGGATT
B13: CGUGCUA (DNA:RNA)
RNA: B1 RNA with A26G, U28G, U29C, G30U, U31A
DNA 1: CAATCTGAATTCCGGTCTCCC
DNA 2: TGGTGGCTACGACGGGATT
B14: AGUUAGC (DNA:RNA)
RNA: B1 RNA with C25A, A26G, U29A, U31C
DNA 1: CAATCTGAATTCCGGTCTCCC
DNA 2: TGGTGGCTACGACGGGATT
B15: GCCAAUG (DNA:RNA)
RNA: B4 RNA with U25G, U26C, G27C, C28A, G29A
DNA 1: CAATCTGAATTCCGGTCTCCC
DNA 2: TGGTGGCTACGACGGGATT
B16: GCGCCGU (DNA:RNA)
RNA: B1 RNA with C25G, A26C, U27G, U28C, U29C
DNA 1: CAATCTGAATTCCGGTCTCCC
DNA 2: TGGTGGCTACGACGGGATT
B17: UCCCCUU (DNA:RNA)
RNA: B4 RNA with U26C, G27C, G29C, G31U
DNA 1: CAATCTGAATTCCGGTCTCCC
DNA 2: TGGTGGCTACGACGGGATT
B18: CAACACA (DNA:RNA)
RNA: B1 RNA with U27A, U28C, U29A, G30C, U31A
DNA 1: CAATCTGAATTCCGGTCTCCC
DNA 2: TGGTGGCTACGACGGGATT
B19: CCCGGUG (DNA:RNA)
RNA: B4 RNA with U25C, U26C, G27C, C28G
DNA 1: CAATCTGAATTCCGGTCTCCC
DNA 2: TGGTGGCTACGACGGGATT
B20: UCAGUCA (DNA:RNA)
RNA: B1 RNA with C25U, A26C, U27A, U28G, G30C, U31A
DNA 1: CAATCTGAATTCCGGTCTCCC
DNA 2: TGGTGGCTACGACGGGATT
B21: CAUAGUG (DNA:RNA)
RNA: B1 RNA with U28A, U29G, G30U, U31G
DNA 1: CAATCTGAATTCCGGTCTCCC
DNA 2: TGGTGGCTACGACGGGATT
B22: CAAGCGU (DNA:RNA)
RNA: B1 RNA with U27A, U28G, U29C
DNA 1: CAATCTGAATTCCGGTCTCCC
DNA 2: TGGTGGCTACGACGGGATT
B23: UUAAUCA (DNA:RNA)
RNA: B4 RNA with G27A, C28A, G29U, U30C, G31A
DNA 1: CAATCTGAATTCCGGTCTCCC
DNA 2: TGGTGGCTACGACGGGATT
B24: CCCCGUA (DNA:RNA)
RNA: B4 RNA with U25C, U26C, G27C, G31A
DNA 1: CAATCTGAATTCCGGTCTCCC
DNA 2: TGGTGGCTACGACGGGATT
B25: UCUGGAA (DNA:RNA)
RNA: B4 RNA with U26C, G27U, C28G, U30A, G31A
DNA 1: CAATCTGAATTCCGGTCTCCC
DNA 2: TGGTGGCTACGACGGGATT
B26: AUAGUUA (DNA:RNA)
RNA: B4 RNA with U25A, G27A, C28G, G29U, G31A
DNA 1: CAATCTGAATTCCGGTCTCCC
DNA 2: TGGTGGCTACGACGGGATT
B27: GCGGUUG (DNA:RNA)
RNA: B4 RNA with U25G, U26C, C28G, G29U
DNA 1: CAATCTGAATTCCGGTCTCCC
DNA 2: TGGTGGCTACGACGGGATT
B28: CAGGCCC (DNA:RNA)
RNA: B1 RNA with U27G, U28G, U29C, G30C, U31C
DNA 1: CAATCTGAATTCCGGTCTCCC
DNA 2: TGGTGGCTACGACGGGATT
B29: GUGCCCU (DNA:RNA)
RNA: B4 RNA with U25G, G29C, U30C, G31U
DNA 1: CAATCTGAATTCCGGTCTCCC
DNA 2: TGGTGGCTACGACGGGATT
B30: CAUACCG (DNA:RNA)
RNA: B1 RNA with U28A, U29C, G30C, U31G
DNA 1: CAATCTGAATTCCGGTCTCCC
DNA 2: TGGTGGCTACGACGGGATT
B31: CGGGGGG (DNA:RNA)
RNA: B4 RNA with U25C, U26G, C28G, U30G
DNA 1: CAATCTGAATTCCGGTCTCCC
DNA 2: TGGTGGCTACGACGGGATT

Positions count from the first letter of the chain named. The list shows a part of the results.

The experiment addresses T1, RBFOX1 RRM RbFoxmut (Fox-RRM*). Briefly: EMSA; HiTS-Eq, 1 nM pool, 10 min; buffer printed only for the single-RNA assays: 10 mM Tris pH 7.5, 150 mM NaCl, 3.4 mM EDTA, 0.001% NP-40, 30 C. The following applies: tags: His6 N-terminal (pET28a); label: 5' 32P. An outline of the steps: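 A pool of RNA with 7 randomized nucleotides, 5′-radiolabelled and with DNA-annealed flanks, was equilibrated at 1 nM for 10 min in 50 µL with purified RbFox RRM, wild type or mutant, across increasing protein concentrations. Free RNA was separated by 8% native PAGE, excised, reverse-transcribed, barcoded by PCR and sequenced. Relative association constants were obtained from read-count changes of each RNA species versus the control reaction and normalised to the cognate motif.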
(In general: In EMSA bound probe runs differently from free probe, usually more slowly.)
For B1, the binding signal is 0.145 KA relative to UGCAUGU.

On to B2, for which the binding signal is 0.128 KA relative to UGCAUGU.

For the molecule B3, the binding signal was 0.184 KA relative to UGCAUGU.

As to B4, the binding signal was 0.252 KA relative to UGCAUGU.

In the case of B5, the binding signal was 0.0815 KA relative to UGCAUGU.

Consider B6, for which the binding signal was 0.0644 KA relative to UGCAUGU.

In the case of B7, the binding signal is 0.104 KA relative to UGCAUGU.

In the case of B8, the binding signal is 0.0588 KA relative to UGCAUGU.

As to B9, the binding signal is 0.114 KA relative to UGCAUGU.

Take B10: the binding signal is 0.12 KA relative to UGCAUGU.

Turning to B11, the binding signal was 0.136 KA relative to UGCAUGU.

For the molecule B12, the binding signal was 0.0578 KA relative to UGCAUGU.

B13: the binding signal was 0.114 KA relative to UGCAUGU.

For the molecule B14, the binding signal was 0.112 KA relative to UGCAUGU.

With B15, the binding signal is 0.0766 KA relative to UGCAUGU.

Take B16: the binding signal is 0.0953 KA relative to UGCAUGU.

For B17, the binding signal is 0.0629 KA relative to UGCAUGU.

For the molecule B18, the binding signal was 0.117 KA relative to UGCAUGU.

B19: the binding signal was 0.112 KA relative to UGCAUGU.

Regarding B20, the binding signal is 0.0938 KA relative to UGCAUGU.

For the molecule B21, the binding signal was 0.108 KA relative to UGCAUGU.

With B22, the binding signal was 0.0877 KA relative to UGCAUGU.

As for B23, the binding signal is 0.093 KA relative to UGCAUGU.

Take B24: the binding signal was 0.116 KA relative to UGCAUGU.

Regarding B25, the binding signal is 0.0942 KA relative to UGCAUGU.

As to B26, the binding signal is 0.158 KA relative to UGCAUGU.

For B27, the binding signal was 0.319 KA relative to UGCAUGU.

In the case of B28, the binding signal is 0.068 KA relative to UGCAUGU.

Consider B29, for which the binding signal is 0.0594 KA relative to UGCAUGU.

B30: the binding signal was 0.127 KA relative to UGCAUGU.

For the molecule B31, the binding signal was 0.0805 KA relative to UGCAUGU.
